Test results: the supplement of paper PMC6089552
Out of some 3,200 compounds screened, about 300 (9.4%) showed activity. The entries are a selection whose mix differs from that of the whole data set.

Test system: A673/TR/shEF
Assay: cell viability (LOESS-normalised, relative to median of negative controls) (log2 ratio); higher = more viable cells (less compound effect), active = hit call of the paper (over 3 MAD below the median)
Settings: treatment time: 72 h
Outline: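 A673/TR/shEF Ewing sarcoma cells (1,500 per well, 384-well plates) were grown with or without doxycycline to induce EWS-FLI1 shRNA knockdown, starting 24 h before compounds. Library compounds at two or more concentrations, with DMSO controls, were added for three days. Cell viability was read by CellTiter-Glo luminescence on an Envision reader, then LOESS-corrected per plate, divided by the median of negative controls and log2-transformed. Hits were wells at least three median absolute deviations from the median of all screened wells.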

[1] = 0.25 µM, library screen: screen1, EWS-FLI1 expression: high (no doxycycline)
[2] = 0.25 µM, library screen: screen1, EWS-FLI1 expression: low (doxycycline-induced shRNA knockdown)
[3] = 2.5 µM, library screen: screen1, EWS-FLI1 expression: high (no doxycycline)
[4] = 2.5 µM, library screen: screen1, EWS-FLI1 expression: low (doxycycline-induced shRNA knockdown)
[5] = 0.025 µM, library screen: screen2, EWS-FLI1 expression: high (no doxycycline)
[6] = 0.025 µM, library screen: screen2, EWS-FLI1 expression: low (doxycycline-induced shRNA knockdown)
[7] = 0.103 µM, library screen: screen3, EWS-FLI1 expression: high (no doxycycline)
[8] = 0.103 µM, library screen: screen3, EWS-FLI1 expression: low (doxycycline-induced shRNA knockdown)
[9] = 0.25 µM, library screen: screen2, EWS-FLI1 expression: high (no doxycycline)
[10] = 0.25 µM, library screen: screen2, EWS-FLI1 expression: low (doxycycline-induced shRNA knockdown)
[11] = 0.308 µM, library screen: screen3, EWS-FLI1 expression: high (no doxycycline)
[12] = 0.308 µM, library screen: screen3, EWS-FLI1 expression: low (doxycycline-induced shRNA knockdown)
[13] = 0.926 µM, library screen: screen3, EWS-FLI1 expression: high (no doxycycline)
[14] = 0.926 µM, library screen: screen3, EWS-FLI1 expression: low (doxycycline-induced shRNA knockdown)
[15] = 2.5 µM, library screen: screen2, EWS-FLI1 expression: high (no doxycycline)
[16] = 2.5 µM, library screen: screen2, EWS-FLI1 expression: low (doxycycline-induced shRNA knockdown)
[17] = 2.8 µM, library screen: screen3, EWS-FLI1 expression: high (no doxycycline)
[18] = 2.8 µM, library screen: screen3, EWS-FLI1 expression: low (doxycycline-induced shRNA knockdown)
[19] = 8.3 µM, library screen: screen3, EWS-FLI1 expression: high (no doxycycline)
[20] = 8.3 µM, library screen: screen3, EWS-FLI1 expression: low (doxycycline-induced shRNA knockdown)
[21] = 25 µM, library screen: screen2, EWS-FLI1 expression: high (no doxycycline)
[22] = 25 µM, library screen: screen2, EWS-FLI1 expression: low (doxycycline-induced shRNA knockdown)
[23] = 25 µM, library screen: screen3, EWS-FLI1 expression: high (no doxycycline)
[24] = 25 µM, library screen: screen3, EWS-FLI1 expression: low (doxycycline-induced shRNA knockdown)
[25] = 0.025 µM, library screen: screen1, EWS-FLI1 expression: high (no doxycycline)
[26] = 0.025 µM, library screen: screen1, EWS-FLI1 expression: low (doxycycline-induced shRNA knockdown)
[27] = 25 µM, library screen: screen1, EWS-FLI1 expression: high (no doxycycline)
[28] = 25 µM, library screen: screen1, EWS-FLI1 expression: low (doxycycline-induced shRNA knockdown)

Measured: cell viability (log2)

C#C[C@]1(OC(C)=O)CC[C@H]2[C@@H]3CCC4=CC(=O)CC[C@@H]4[C@H]3CC[C@@]21C
inactive: [1] 0.0108 | [2] 0.0155 | [3] 0.142 | [4] 0.0755

CC1=CC(=O)c2ccccc2C1=O
inactive: [1] 0.0255 | [2] 0.0314 | [3] 0.173 | [4] 0.146

N[C@@H](C=O)[C@@H](O)[C@H](O)[C@H](O)CO
inactive: [1] 0.0986 | [2] 0.0199 | [3] 0.192 | [4] 0.145

[Cl][Pt+2][Cl].[NH2-].[NH2-]
inactive: [5] 0.0701 | [6] 0.092 | [7] 0.0436 | [8] 0.101 | [1] 0.0699 | [2] 0.0806 | [9] 0.126 | [10] 0.0568 | [11] 0.119 | [12] 0.0647 | [13] 0.132 | [14] 0.00232 | [3] 0.0557 | [4] 0.0761 | [15] 0.062 | [16] 0.0651 | [17] 0.0695 | [18] 0.05 | [19] 0.0685 | [20] 0.0664 | [21] 0.079 | [22] 0.0718 | [23] 0.135 | [24] 0.0626

N=C(N)SCCN
inactive: [9] 0.17 | [10] 0.103 | [15] 0.133 | [16] 0.113

CCCCC1C(=O)N(c2ccccc2)N(c2ccccc2)C1=O
inactive: [7] 0.0537 | [8] 0.0214 | [1] 0.128 | [2] 0.109 | [9] 0.0899 | [10] 0.0435 | [11] 0.172 | [12] 0.159 | [13] 0.0763 | [14] 0.0956 | [3] 0.118 | [4] 0.1 | [15] 0.084 | [16] 0.0326 | [17] 0.137 | [18] 0.112 | [19] 0.169 | [20] 0.123 | [23] 0.117 | [24] 0.141

CCCCC[C@@H](O)[C@H]1C(=O)O[C@H](C)[C@@H](O)/C=C/C=C/C=C/C=C/C=C(\C)[C@@H](O)C[C@H](O)C[C@H](O)C[C@H](O)C[C@H](O)C[C@H](O)C[C@@H]1O
inactive: [1] -0.0231 | [2] 0.00896 | [3] 0.025 | [4] 0.0993

Nc1c(S(=O)(=O)O)cc(Nc2ccc(Nc3nc(Cl)nc(Nc4cccc(S(=O)(=O)O)c4)n3)c(S(=O)(=O)O)c2)c2c1C(=O)c1ccccc1C2=O
inactive: [9] 0.0777 | [10] 0.0897 | [15] 0.111 | [16] 0.107

c1ccc(CN2CCC3(CCCc4ccccc43)CC2)cc1
inactive: [9] 0.111 | [10] 0.0384 | [15] 0.107 | [16] 0.0859

CNCC[C@@H](Oc1ccccc1C)c1ccccc1
inactive: [9] 0.229 | [10] 0.0466 | [15] 0.191 | [16] 0.138

Cc1ccc(C(=O)C(C)CN2CCCCC2)cc1 (stereo not given)
inactive: [1] 0.0669 | [2] 0.013 | [3] 0.14 | [4] 0.00399

Cc1nc(-c2ccc(NC(=O)c3ccccc3)cc2)cs1
inactive: [1] 0.118 | [2] 0.115 | [3] 0.0995 | [4] 0.089

O=C(CCCCC(=O)Nc1c(I)cc(I)c(C(=O)O)c1I)Nc1c(I)cc(I)c(C(=O)O)c1I
inactive: [1] 0.0751 | [2] 0.0218 | [3] 0.12 | [4] 0.107

CCC(=O)c1ccc2c(c1)N(CC(C)N(C)C)c1ccccc1S2 (stereo not given)
inactive: [1] 0.0889 | [2] 0.155 | [3] 0.168 | [4] 0.297

CC(Cc1ccc(O)c(O)c1)C(C)Cc1ccc(O)c(O)c1 (stereo not given)
inactive: [1] 0.158 | [2] 0.0358 | [9] 0.0471 | [10] 0.078 | [3] 0.17 | [4] 0.185 | [15] 0.0738 | [16] 0.0462

C[C@@H](Oc1cc(-c2cnn(C3CCNCC3)c2)cnc1N)c1c(Cl)ccc(F)c1Cl
active: [19] -0.189 | [23] -1.08

COc1ccc(CCNCC(O)c2ccc(O)cc2)cc1OC (stereo not given)
active: [15] -0.721 | [16] -0.108
inactive: [9] 0.167 | [10] -0.0395

COc1cc(C(C)=O)cc(OC)c1O
inactive: [1] 0.00622 | [2] 0.0628 | [3] 0.127 | [4] 0.0928

CC(C)=CCC/C(C)=C\CO
inactive: [1] 0.138 | [2] 0.0517 | [4] 0.0556
0.269: [3]

O=S(=O)(c1cccc2c(Cl)cccc12)N1CCCNCC1
inactive: [25] 0.198 | [26] -0.106 | [1] 0.179 | [2] -0.113 | [9] 0.275 | [10] 0.144 | [4] -0.13 | [15] 0.128 | [16] 0.122 | [28] -0.103
active: [3] -0.211 | [27] -0.331

CCC(C)C(=O)OC1[C@@H]2CC3=C4CC(=O)O[C@@H](c5ccoc5)[C@]4(C)CCC3[C@@](C)(C2=O)[C@@H](CC(=O)OC)C1(C)C (stereo not given in full)
inactive: [1] 0.0496 | [2] 0.0641 | [3] 0.0299 | [4] 0.146

CC1=C(C(=O)O)N2C(=O)[C@@H](NC(=O)[C@H](N)c3ccccc3)[C@H]2SC1
inactive: [1] 0.0148 | [2] 0.036 | [9] 0.246 | [10] 0.109 | [3] 0.057 | [4] 0.0309 | [15] 0.1 | [16] 0.0911

Cc1cccc(C)c1NC(=O)C[N+](C)(C)C
inactive: [9] 0.174 | [10] 0.0998 | [15] 0.0786 | [16] 0.0656

CCCn1c(=O)c2[nH]c(-c3ccc(OCC(=O)NCCN)cc3)nc2n(CCC)c1=O
inactive: [9] 0.15 | [10] 0.0941 | [15] 0.152 | [16] 0.0512

Nc1ccccc1NC(=O)c1ccc(CNc2nccc(-c3cccnc3)n2)cc1
active: [17] -0.554 | [19] -1.39 | [20] -0.431 | [23] -3.23 | [24] -1.08

Cc1ccc(S(=O)(=O)/C=C/C#N)cc1
inactive: [25] 0.231 | [26] -0.0315 | [1] 0.131 | [2] 0.0518 | [9] 0.14 | [10] -0.0223 | [4] -0.123 | [16] 0.0315
active: [3] -0.841 | [15] -0.102 | [27] -3.58 | [28] -2.12

Cc1cc(O)cc(O)c1C(=O)O
inactive: [1] 0.0836 | [2] 0.00276 | [3] 0.16 | [4] 0.0121

CC1=C(C(=O)OC2CCCC2)C(c2coc3ccc(Cl)cc3c2=O)C2=C(CCCC2=O)N1 (stereo not given)
inactive: [1] 0.123 | [2] 0.0763 | [3] 0.136 | [4] -0.0126

C=CCN1C(=O)/C(=C2\SC(=S)N(c3c(C)n(C)n(-c4ccccc4)c3=O)C2=O)c2ccccc21
inactive: [1] -0.0187 | [2] -0.00404 | [3] 0.0713 | [4] -0.0309

COc1ccc2cc3[n+](cc2c1OC)CCc1cc2c(cc1-3)OCO2
inactive: [5] 0.0792 | [6] 0.0888 | [1] 0.0876 | [2] 0.0916 | [9] 0.139 | [10] 0.0365 | [3] -0.0264 | [4] 0.141 | [16] -0.00212
active: [15] -0.318 | [21] -1.53 | [22] -0.365

COc1cc2c(cc1Cc1cccc(Cl)c1F)c(=O)c(C(=O)O)cn2[C@H](CO)C(C)C
inactive: [7] 0.05 | [8] -0.00255 | [11] 0.102 | [12] 0.0944 | [13] 0.115 | [14] 0.0617 | [17] 0.0282 | [18] 0.1 | [19] 0.113 | [20] 0.0151 | [23] 0.139 | [24] 0.0149

CC[C@@H]1Cc2cc(O)ccc2C2=C1c1ccc(O)cc1C[C@H]2CC
inactive: [9] 0.16 | [10] 0.136 | [15] 0.141 | [16] 0.0955

COC(=O)C[C@H]1C(C)(C)C(=O)[C@@H]2CC3C4=CC(=O)O[C@@H](c5ccoc5)[C@]4(C)CC[C@@H]3[C@@]1(C)C2=O (stereo not given in full)
inactive: [1] 0.00456 | [2] 0.0839 | [3] 0.0543 | [4] 0.0477

CC(C)=CC1C(C(=O)O)C1(C)C (stereo not given)
inactive: [1] 0.103 | [2] 0.017 | [3] 0.143 | [4] 0.0923

OCC(S)CS (stereo not given)
inactive: [1] 0.132 | [2] 0.234 | [3] 0.179 | [4] 0.329

Oc1ccc2c(c1)O[C@H](c1ccc(O)c(O)c1)[C@@H](O)C2
inactive: [1] 0.0741 | [2] -0.0244 | [3] 0.0985 | [4] 0.085

O=C1C(O)=C(O)C(=O)C(O)=C1O
inactive: [1] 0.0591 | [2] 0.14 | [3] 0.183 | [4] 0.124

CC(=O)NC[C@H]1CN(c2ccc(N3CCOCC3)c(F)c2)C(=O)O1
inactive: [7] -0.04 | [8] 0.0645 | [11] 0.0945 | [12] 0.0943 | [13] 0.103 | [14] 0.0601 | [17] 0.0216 | [18] 0.0958 | [19] -0.0023 | [20] 0.0557 | [23] 0.0639 | [24] 0.105
